Here are results for 1 substance from EP1611148B1, “NOVEL NITRILE GLYCOSIDE USEFUL AS A BIO-ENHANCER OF DRUGS AND NUTRIENTS, PROCESS OF ITS ISOLATION FROM MORINGA OLEIFERA” (Council of Scientific and Industrial Research, priority 2003, dated 2004).

The assay deals with Escherichia coli, CA 8000. The experiment in a line: Enhancement of adsorption of λ phage on bacteria. To be noted: niaziridin 1µg/ml; MOI=10. How it is done: Overnight grown bacterial culture (Escherichia coli, CA 8000) was divided into 5 ml of aliquot each in screw cap tubes. One of the tube with the bacterial culture was treated with niaziridin to a final concentration of 1µg/ml. Both the control and the treated tubes were incubated at 37°C for 4 hours. The cultures were then infected with λ phage (MOI=10) for 10minutes at 37°C (for adsorption) followed by centrifugation at 10000 RPM for 10 minutes at 4°C.
The supernatant and the pellets for both treated and untreated cultures were then compared for the phage titer by plating on top agar containing sensitive bacteria at different dilutions. The phage titer in the supernatant of the treated culture was reduced by 2.6 folds indicating increase in adsorption to the bacterial cells harvested in the pellet. Table-7: Effect of plant compound, niaziridin on λ phage adsorption on E.coli cells.

Consider niaziridin, for which the “reduction of phage titer in the supernatant of the treated culture” value is reported as 2.6 folds.
